In this test the test system is Pseudomonas aeruginosa N-10 L-form. The experiment in a line: microbe, parasite or virus in culture. The conditions noted are these: N10LFORM, read-out: Inhibition Circle. The source says:
The value in paretheses in the table denotes a partial inhibition.

On to `CC=C(C)C(O)C(C)C=C(C)C=CCC(C)=CCc1nc(OC)c(OC)c(OC2OC(C)C(O)C(O)C2O)c1C` (stereo not shown), for which the zone of inhibition at 20 µg/disc turned out to be 14 mm.

(Values after patent US5126436A (priority 1989, dated 1992).)
